Results on 110 compounds are retold here after PubChem BioAssay AID488969 (Vanderbilt High Throughput Screening Facility, 2010).

The full ranking holds about 110,000 compounds; the median of “z-score” is about -0.1, and the highest 2% start at about 2. Some of the results follow. Active and inactive are the calls of the source.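 How the source made its calls: active means z-score in the third read window above 3 or below -3; inactive means the rest.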

For the assay, the target named is Metabotropic glutamate receptor 8 (Rattus norvegicus) (UniProt P70579). Nature of the assay: mGluR8 Gi/Go-coupled signaling modulation – cell-based, rat, thallium flux, HTS, primary screen (AID 488969). As to conditions: HEK293 rat mGluR8, GIRK (G protein-gated inwardly rectifying potassium channel) thallium flux, FluoZin2; at 10 µM; stronger effect = higher value; submaximal glutamate (EC20) added with thallium.
Chain of UniProt P70579 (P70579 whole entry, looked up): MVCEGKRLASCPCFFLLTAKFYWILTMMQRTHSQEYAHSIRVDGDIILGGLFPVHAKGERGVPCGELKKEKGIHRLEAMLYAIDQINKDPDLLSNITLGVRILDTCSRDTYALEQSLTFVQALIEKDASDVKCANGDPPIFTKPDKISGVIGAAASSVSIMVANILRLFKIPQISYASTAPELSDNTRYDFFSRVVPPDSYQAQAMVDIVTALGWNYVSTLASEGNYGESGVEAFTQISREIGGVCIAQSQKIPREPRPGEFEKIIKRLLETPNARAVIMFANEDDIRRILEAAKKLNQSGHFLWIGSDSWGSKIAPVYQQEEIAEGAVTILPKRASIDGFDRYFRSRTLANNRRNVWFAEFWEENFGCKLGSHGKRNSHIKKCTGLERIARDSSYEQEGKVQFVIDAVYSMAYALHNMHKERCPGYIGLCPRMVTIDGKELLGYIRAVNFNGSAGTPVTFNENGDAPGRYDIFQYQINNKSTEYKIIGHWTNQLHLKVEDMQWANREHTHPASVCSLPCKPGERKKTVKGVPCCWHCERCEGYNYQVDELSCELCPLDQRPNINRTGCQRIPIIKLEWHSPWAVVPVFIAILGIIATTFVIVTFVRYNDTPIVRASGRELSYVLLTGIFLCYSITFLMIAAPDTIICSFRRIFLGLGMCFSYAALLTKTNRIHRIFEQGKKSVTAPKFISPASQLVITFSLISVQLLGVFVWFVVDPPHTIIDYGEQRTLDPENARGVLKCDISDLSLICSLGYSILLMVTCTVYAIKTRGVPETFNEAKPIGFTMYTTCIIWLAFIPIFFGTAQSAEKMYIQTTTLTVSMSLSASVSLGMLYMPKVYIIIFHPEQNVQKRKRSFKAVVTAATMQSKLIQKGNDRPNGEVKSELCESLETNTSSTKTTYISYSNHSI
For the compound `COc1ccc(N2C(=O)CSC2c2ccc3c(c2)OCO3)cc1` (stereo not given), the z-score was -0.145.

Turning to `O=C(CC1COc2ccccc2O1)NCc1ccccc1` (stereo not given), the z-score is -1.07.

Turning to `COc1cc(OC)c(C(=O)OC(C)C(=O)Nc2cccc(C(F)(F)F)c2)cc1OC` (stereo not given), the z-score is -0.492.

For the compound `O=C(COC(=O)/C=C/c1cccc(Cl)c1)NCCc1ccc(Cl)cc1Cl`, the z-score stood at 0.84.

`CCOC(=O)c1cc(-c2ccccc2)n(CC(=O)Nc2cc(OC)cc(OC)c2)c1C` had a z-score of 0.0746.

The compound `COc1ccc(CC(=O)NC(CC(=O)O)c2ccc(OC)cc2)cc1` (stereo not given) gave a z-score of -1.02.

On to `COc1ccc(N2CCN(C(=O)Cc3ccc(-n4c(=O)[nH]c5ccccc5c4=O)cc3)CC2)cc1`, for which the z-score is 0.819.

The compound `CCN(CC)c1ccc(NC(=O)c2cccc(C)c2OC)c(C)c1` registered a z-score of -1.57.

In the case of `C=CCCC(=O)Nc1ccc(COC(=O)N2CCOCC2)cc1`, the z-score was -0.0596.

Consider `COc1ccc(C2CCCN2C(=O)Nc2ccc(Cl)cc2)cc1OC` (stereo not given), for which the z-score was -1.46.

For `Cc1nn(Cc2c(Cl)cccc2Cl)c(C)c1N`, the z-score was -0.217.

The compound `Cc1ccc(-n2ncc(C#N)c2/N=C/N(C)C)cc1` registered a z-score of 0.104.

The compound `CCc1nc(NCc2ccc3c(c2)OCO3)c2oc3ccccc3c2n1` registered a z-score of -0.977.

In turn, `CCN(CC)S(=O)(=O)c1ccc(C)c(NC(=O)CN(C)C)c1` came in with a z-score of 0.239.

As for `COC(=O)CCCCCNc1ccc(C(=O)OC)cc1N`, the z-score was -0.131.

Turning to `O=C(COC(=O)c1ccccc1Cl)NC(=O)NCc1ccccc1`, the z-score was -0.627.

Turning to `CC(=O)Nc1cc(-c2ccc(Cl)cc2)nn1-c1ccccc1`, the z-score is 0.262.

Compound `COc1ccc(C(=O)Nc2ccccc2-c2nnn(CC(=O)Nc3ccc4c(c3)OCCO4)n2)cc1` returned a z-score of -0.257.

`O=C(Nc1ccccc1)OCc1cc(-c2ccccc2Cl)on1` had a z-score of -0.0611.

In turn, `Fc1cccc(-c2cc3nc(-c4ccccc4)cc(N4CCC5(CC4)OCCO5)n3n2)c1` returned a z-score of -0.324.

In turn, `CCOC(=O)CCSc1nc(-c2ccc3c(c2)OCO3)cc(C(F)(F)F)c1C#N` came in with a z-score of -0.326.

In turn, `COC(=O)c1[nH]c2ccc(F)cc2c1NC(=O)CCN1CC(C)OC(C)C1` (stereo not given) yielded a z-score of -0.0436.

The compound `O=C(Cc1ncc(C(F)(F)F)cc1Cl)N1CCN(c2ccccn2)CC1` displayed a z-score of 0.224.

Compound `N#Cc1c(C(F)(F)F)cc(-c2ccccc2Cl)[nH]c1=O` displayed a z-score of -1.14.

Take `Cc1ccc(C)c(-n2cc(-c3ccc(Cl)cc3)nc2SCC(=O)NC2CCS(=O)(=O)C2)c1` (stereo not given): the z-score was -0.524.

For the compound `CCn1nnnc1SCC(=O)N1CCc2ccccc21`, the z-score came to 0.00286.

As to `Cc1cc(NC(=O)CN2CCCCC2C)no1` (stereo not given), the z-score was -0.358.

`Cc1ccc2cc(CN(CC3CCCO3)S(=O)(=O)c3ccccc3)c3nnnn3c2c1` (stereo not given): the z-score is -0.322.

In the case of `CN1CCN(CC(=O)Nc2sc3c(c2C#N)CCC(C(C)(C)C)C3)CC1` (stereo not given), the z-score stood at 1.67.

`Cc1ccccc1OCC(=O)N1CCCc2ccccc21` registered a z-score of -0.249.

The compound `CN(C)CCNC(=O)c1coc(=O)c(Br)c1` came in with a z-score of 0.847.

In turn, `CC1CCN(C(=O)Cn2cc3c(n2)CCCC3)CC1` gave a z-score of -0.224.

`CC(C)(C)OC(=O)NNC1CC(=O)N(c2ccccc2F)C1=O` (stereo not given) returned a z-score of 0.542.

For `O=S(=O)(NCC(c1cccnc1)N1CCN(c2ccccc2)CC1)c1cccs1` (stereo not given), the z-score is -0.0906.

`COc1ccc(-c2cc(O)cc(O)c2)cc1` had a z-score of -0.182.

In the case of `CCn1c(/C=C2\C(=O)N(C)c3ccccc32)nc2ccccc2c1=O`, the z-score turned out to be 0.0291.

`CC(=O)Nc1sc(/C(C#N)=C/c2ccc(Cl)c(Cl)c2)nc1-c1ccc(C)cc1` yielded a z-score of -0.0793.

`CNC(=O)/C=C/c1cccc(C(F)(F)F)c1` had a z-score of -0.215.

`O=C(Nc1cc(C(F)(F)F)ccc1N1CCOCC1)c1ccccc1` had a z-score of -0.26.

`CCCc1cc(C(=O)Nc2nccs2)cs1`: the z-score was -0.0307.

`CS(=O)(=O)NCc1csc(-c2ccccc2)n1` registered a z-score of 2.26.

`CSc1cccc(-n2c(C)cc(C(N)=O)c2C)c1` gave a z-score of 1.15.

In turn, `O=Cc1cn(-c2ccc(F)cc2)c2ccccc12` came in with a z-score of -0.188.

`CCCCC(C(=O)NCCC(C)C)N(CCCN1CCOCC1)C(=O)c1snc(C(N)=O)c1N` (stereo not given) yielded a z-score of -0.0892.

With `CCCSc1nc(O)c(C2OC(=O)c3c2ccc(OC)c3OC)c(=O)n1-c1ccccc1` (stereo not given), the z-score is -0.467.

Regarding `COc1ccc(NC(=O)C(=O)NCc2ccncc2)c(OC)c1`, the z-score was -0.236.

As for `COc1cc(CNC2CCCCCC2)cc(OC)c1OC`, the z-score was -0.324.

Regarding `c1ccc(Cc2nnc(-c3ccccc3)o2)cc1`, the z-score was active: 10.4.

Compound `Clc1ccc(-c2nc(N3CCCCC3)nc3ccccc23)cc1` displayed a z-score of 0.231.

In turn, `CC(CNS(=O)(=O)c1ccccc1)(c1ccccc1)N1CCOCC1` (stereo not given) showed a z-score of -0.324.

`CC1C(c2ccccc2)N(C)C(c2ccccc2)CC1(O)c1ccccc1` (stereo not given) returned a z-score of 1.27.

As to `CC(=O)c1cccc(NC(=S)NC(=O)c2cccc(C)c2)c1`, the z-score was active: 7.49.

Turning to `O=C(c1ccco1)N1CCN(C(=O)c2ccc(COc3ccc(Cl)cc3Cl)o2)CC1`, the z-score is -0.771.

Consider `COc1ccc(OC)c(CCNC(=O)C2CCN(c3nnc(-n4cccc4)s3)CC2)c1`, for which the z-score was -0.473.

`COc1ccc(-c2nnnn2CCc2ccccc2)cc1` gave a z-score of -0.471.

Compound `COc1ccc(CNC(=O)CN(Cc2ccccc2)C(=O)c2csnn2)cc1` registered a z-score of -0.179.

For the compound `CCOc1ccc(NC(=O)Cn2cc(C(=O)c3ccco3)c3ccccc32)cc1`, the z-score stood at 0.434.

The compound `COc1ccccc1CNC(=O)CCCNS(=O)(=O)c1cccc2nsnc12` had a z-score of -0.134.

Take `CCOC(=O)C1=CN(C)C=C(C(=O)OCC)C1c1ccsc1`: the z-score is -0.144.

The compound `CC(C(=O)N1CCOCC1)(c1ccccc1)c1ccccc1` registered a z-score of -0.156.

On to `CSc1nc2c(c(=O)n1Cc1ccccc1)SC(C)C2` (stereo not given), for which the z-score is -0.479.

`CCCCOc1ccc(N(CC(=O)NCC2CCCO2)C(=O)CCC(=O)Nc2cc(C)ccn2)cc1` (stereo not given) displayed a z-score of -0.384.

In turn, `COc1ccc(NC(=O)CSc2nc(NS(=O)(=O)c3ccccc3)cc(=O)[nH]2)cc1` registered a z-score of -0.0529.

Regarding `Cc1nnc(NC2=NCCCCC2)o1`, the z-score was 0.0841.

In the case of `CCOC(=O)CNC(=O)c1cc(-c2ccc3c(c2)OCCO3)oc1C`, the z-score came out at 0.113.

With `O=C(c1cc(-c2cccnc2)nc2ccc(Br)cc12)N1CCC2(CC1)OCCO2`, the z-score was determined as 0.0607.

Regarding `Cc1oc(C(C)(C)C)cc1C(=O)N1CCCC1C(=O)O` (stereo not given), the z-score was determined as 0.0366.

The compound `Cc1ccccc1N=C/C=C1/C=C(c2ccccc2)OC(C)(C)O1` returned a z-score of 0.216.

In turn, `Cc1ccc(C(=O)Nc2cccnc2)cc1S(=O)(=O)N1CCOCC1` gave a z-score of 0.265.

With `COc1ccccc1Nc1nc(N)nc(CSc2nncn2C)n1`, the z-score is -0.062.

For the compound `O=C(NC(=S)NC1CCCCCCCCCCC1)c1cccnc1`, the z-score is -0.0629.

In turn, `C=C(C)c1cccc(C(C)(C)NC(=O)Nn2cnnc2)c1` gave a z-score of 0.275.

Compound `CCN(CC)S(=O)(=O)c1ccc(-c2nnc(SCC(=O)Nc3cc(OC)cc(OC)c3)o2)cc1` returned a z-score of 0.363.

Compound `Cc1cccc(CN2C(=O)N/C(=C/c3ccc(C)s3)C2=O)c1` showed a z-score of -0.147.

Take `Cc1onc(-c2ccccc2)c1C(=O)Nc1nnc(N(C)Cc2ccccc2)s1`: the z-score was -0.841.

Compound `CCC(C)NC(=O)CCc1c(C)nc2nc(-c3cc(OC)cc(OC)c3)nn2c1C` (stereo not given) displayed a z-score of -0.148.

The compound `COc1ccc(NS(=O)(=O)c2cc(NC(=O)/C=C/c3cc(OC)ccc3OC)ccc2N2CCCCC2)cc1` returned a z-score of 0.234.

`Cc1ccccc1OCc1nnc(SCC(=O)Nc2ccc3c(c2)OCO3)n1C` displayed a z-score of 0.679.

In turn, `C#CCn1c(=NC(=O)c2cc(Cl)sc2Cl)sc2cc(S(N)(=O)=O)ccc21` had a z-score of -0.0707.

As to `Cc1ccc(C)c(CSc2nnc(-c3cccnc3)n2N)c1`, the z-score is -0.395.

The compound `O=C(CNc1ccccc1)N/N=C/c1ccc([N+](=O)[O-])o1` had a z-score of -0.389.

With `COc1ccc(-c2[nH]nc3c2C(c2ccncc2)C(C#N)=C(N)O3)cc1` (stereo not given), the z-score is 0.984.

In turn, `CCOc1cc(-c2nc(-c3ccc(C)nc3OCC)no2)cc(OCC)c1OCC` came in with a z-score of -0.655.

Consider `Cc1sc(NC(=O)C(C)C)c(C(=O)Nc2ccccc2)c1C`, for which the z-score amounted to 0.0376.

In the case of `COc1ccc(/C=N/OCC(=O)NCc2cccs2)c(OC)c1`, the z-score was 0.168.

`CCCCNC(=O)C1=C(N)C(C(=O)Nc2ccc(C)c(S(=O)(=O)N3CCCCC3)c2)SC1=Nc1ccc(C)cc1C` (stereo not given) had a z-score of 0.356.

Compound `CN1CCN(CC(=O)Nc2ccc(OCc3ccccc3)cc2)CC1` returned a z-score of 0.0182.

The compound `Cc1nn(CCCC(=O)N2CCc3ccccc3C2)c(=O)c2cc3sccc3n12` had a z-score of -0.368.

The compound `COc1ccc(C2=NN(C(=O)CSc3ncccn3)C(c3ccc(C)cc3)C2)cc1` (stereo not given) returned a z-score of -0.339.

As to `Cc1cccc(NC2SC(=O)N(c3ccccc3)C2=O)c1` (stereo not given), the z-score was 0.175.

The compound `CC(=O)NCC(=O)N(Cc1ccco1)C1(C(=O)NC2CCCCC2)CCCCC1` displayed a z-score of -0.599.

`O=C(NCCc1cn2ccsc2n1)C1CCCCC1` came in with a z-score of -0.227.

Regarding `O=C1NC2(CCCCCC2)C(=O)N1Cc1ccc([N+](=O)[O-])cc1`, the z-score is -0.301.

Regarding `COCCNC(=O)CS(=O)Cc1nc(-c2ccccc2C)oc1C` (stereo not given), the z-score was -0.599.

`CCc1c(C)nc2cc(-c3ccc(OC)c(OC)c3)nn2c1NCC1CC1`: the z-score was -0.434.

In the case of `CCOC(=O)c1ccc(CNC(=O)C(Cc2c[nH]c3ccccc23)NC(C)=O)o1` (stereo not given), the z-score was 0.631.

`O=C(CSc1nc(C2CC2)nc2ccccc12)N1CCc2ccccc2C1`: the z-score is -0.769.

As to `O=C(N1CCCC1)C12CCC3CC(CC(C3)C1)C2`, the z-score was -0.0329.

`CC(NC(=O)Cc1cccs1)C(c1cccs1)N1CCOCC1` (stereo not given) gave a z-score of -0.108.

Take `COc1ccc2[nH]c(=O)c(CN(Cc3cccs3)Cc3nnnn3C(C)(C)C)cc2c1`: the z-score was -0.312.

Compound `CCC(C)(C)n1nnnc1C(c1ccccc1)N1CCc2ccccc2C1` (stereo not given) registered a z-score of -0.432.

`Cn1c(=O)c2cc(S(=O)(=O)NC(C(=O)NC3CCCCC3)c3ccccc3)ccc2n(C)c1=O` (stereo not given): the z-score was -0.26.

`FC(F)(F)c1cc(C(F)(F)F)n2nc(-c3sccc3-n3cccc3)cc2n1` came in with a z-score of -0.214.

`COc1cccc(/C=N/n2c(N)c(S(=O)(=O)c3cccs3)c3nc4ccccc4nc32)c1` yielded a z-score of -0.0122.

Consider `Cc1csc(NC(=O)c2ccccc2C(=O)O)n1`, for which the z-score amounted to 0.151.

`COC(=O)c1ccc(NC(=O)Cn2nnc3ccccc32)cc1` came in with a z-score of 0.448.

In the case of `O=C(Nc1ccccc1Oc1ccccc1)c1cnccn1`, the z-score is -0.466.

`Cc1ccc(-c2ccc(NC(=O)C3C4C=CC(C4)C3C(=O)O)cc2)o1` (stereo not given) showed a z-score of -0.0584.

The compound `COc1ccc(S(=O)(=O)N2CCCC(C(=O)NCc3ccco3)C2)cc1Cl` (stereo not given) had a z-score of -0.122.

Compound `Cc1cccc(OCC(=O)Nc2nonc2NC(=O)COc2cccc(C)c2)c1` registered a z-score of -0.126.
